Experimental data reported in the supplement of paper PMC11417369.
Some of the results follow.

These sequences were tested on PfAP2-HC AP2 domain (GST-tagged) (assay: gcPBM binding intensity (ln(normalized median fluorescence intensity)); higher = stronger DNA binding).
In short: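 DNA-binding domains from P. falciparum, fused to GST and produced in E. coli, were put on an Agilent 4 × 180k double-stranded probe array for 1 h in 1× PBS holding 1% milk, 0.2 mg/ml BSA, 0.5% salmon testes DNA and 0.03% Triton X-100. Probes were primer-extended, 36 bp long and drawn from intergenic genomic regions, with negative controls included. After Alexa488 anti-GST antibody detection and a 488 nm scan, binding intensity was set as the highest Masliner-normalised natural-log median intensity across replicate spots of either probe orientation.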

Sequence	gcPBM binding intensity (ln)
AAAAGGTGGAAAAATGCATGCAGGCTATTCTATATA [TGCATGCA_site1034]	9.68
TTCCACCAATATATATGTACTTATAATATATATATA [XGTACX_site8700]	9.59
AATTACATATAATACTGTACGCTAATAAGAAAAAAA [XGTACX_site7413]	9.67
AAAAAACACGGACACACACACATATACATACATACA [CACACA_site5470]	10.6
AATATAAATAATGTTAAACACACATACCGATATATA [CACACA_site8869]	9.87
ATTTATAGAGCTATATGTACATATATATATATTATT [XGTACX_site3704]	10
AACGCTTATTAGTTGTTGTATATGTGTTCACATATT [CACACA_negctrl_site379]	9.7
ATATAAATAAAGAAATATATATATATATATATATAT [GTGCAC_negctrl_site668]	9.43
ATATATATGTATATAACATGCAACATTTAATAATAA [TGCATGCA_site1018]	9.85
ATAAAAGATTTATACATACACACATATTATATTCAC [CACACA_site3714]	10.3
TTTTTTTTTTTTTTTTAACACACATATATATATTTT [CACACA_site8585]	9.61
GATCTATTGAGTGATACATGCAGGAAAATTAAAAAC [TGCATGCA_site729]	9.59
TTTTTTTTTTTATGCTCACACATTAATTTTTATACA [CACACA_site4527]	9.68
TATGTATGTATGTATGTATGCATGTCTAACACCTAA [TGCATGCA_site360]	9.65
AAAAAGAAAAAAGAAAGTACAAATATACACATTTTT [XGTACX_site3343]	9.53
TTTTTATTATAAGGTCGTACAATTGTAATTATTGTA [XGTACX_site1413]	9.55
ACACATGTATTTGGTGCATGTTGTTAAAAAAATATT [TGCATGCA_site795]	9.7
TCATAGCTAGGATAACGTACAGAAAAGTGAAAAATT [XGTACX_site3322]	9.84
TTTTTTTTTTGTTGTTGTACTCTTATATTTTTATAT [XGTACX_site6178]	9.78

Sequence	gcPBM binding intensity (ln)
ATTCTAGTAATATATGTATATTTATATATGTATGTG [XGTACX_negctrl_site419]	9.64
ATATATACCTATAACACACACATATTTATATTTATA [CACACA_site7257]	10.1
TAATAAAAAAAGTGCACACACATAATATATATATAT [CACACA_site3340]	10.4
TATAAATCAATATGTACACACATATACATGTTGAAT [CACACA_site7460]	9.85
CATATAATATATCAATGTACATATATATTTTATAAA [XGTACX_site5901]	9.53
TTAGCAACTATTACTACACACATTTTTATATAATTT [CACACA_site1372]	9.95
ATTGTCAAAACACGCACACACATATACATAATAACA [CACACA_site1742]	11.1
ATTATATACATATATATTGTATATACTATACATATG [XGTACX_negctrl_site545]	9.7
TCCTTGTTTGGTTTTTTTTTTTCTTCTTTTTTTTTT [CACACA_negctrl_site1355]	9.68
ACACATACACATTAGGTGCACATAATTCAATATTAC [GTGCAC_site9862]	9.9
TATGAAACGATATATGTGCACATGAGGGAATATAGA [GTGCAC_site9611]	9.97
TTAAATGTTATATATTGTACATATAATATATGTATT [XGTACX_site1492]	9.66
TCTTATTTAAAAATAGCACACATTATATATATATAT [CACACA_site8916]	9.79
ATATATATATAAAGGAGTACATACATTAAAAAAAAA [XGTACX_site1095]	9.79
AAAAAACATACATACACACACATAAATATATATATT [CACACA_site2699]	10.4
TTTTGAGAATATATGGGTACAAATAAATAAAAATAT [XGTACX_site1933]	9.63
TTTTCTATTTAATTGGTGCACTGATATATACACATA [GTGCAC_site9533]	9.71
TTATGTTATATATACACACACAAAAGAAAAAAAAAA [CACACA_site2987]	10.4
AGGTTAAAAATAAATACACACATTTGATGTCTGTAT [CACACA_site6596]	9.82

Sequence	gcPBM binding intensity (ln)
ATATAACATATTAATAATATATTTATAATATGTTTA [GTGCAC_negctrl_site168]	9.39
TCTTATAACAAAAAAAAATAAAAAATAAAACTATAT [GTGCAC_negctrl_site11]	9.43
CATATAAATAGACACACACACACATATAAATAAATA [CACACA_site7156]	11.1
AAATTTAAATAATGTGCGCATCTTAATATATATAAG [GTGCAC_site9890]	9.7
AAATAATATTGAAAAGTGCATATTTTTGTTGATATA	9.58
TTTTAAAAAAAAAAAATAAATAAATAAGATATTATC [CACACA_negctrl_site1791]	9.36
TTTTAAAACTACATTGGTACACAATAAAAAAAAAAA [XGTACX_site2793]	9.49
AAAAAAAAAAAAAAAGCACACATATAAATATGAATA [CACACA_site8391]	9.65
TCATATATATTATACACACACATATATAAATATATA [CACACA_site967]	9.89
AGGTTGAATATATATTTGTGATTATATTATTTTATT [CACACA_negctrl_site778]	9.74
TATATATATATATAATGTACAAACTCCTTTATATAT [XGTACX_site4545]	9.61
CCATGTCAAACATTTGCACACAAAAAAATAAAAATT [CACACA_site4546]	9.84
TCATTCAAAAAAAATCAACACACAGTTACATAGCTC [CACACA_site8700]	9.79
GTTTTTTTTATATATTGTACAAATAATATATTATAT [XGTACX_site29]	9.8
TTATTTAAACAAATCACACACAAATATAAATACATA [CACACA_site5158]	10.3
AACACCAAACTAAATGTACACACATACATAAATATA [CACACA_site8298]	10.1
AATATAAACACAAACACACACATATATATATATATA [CACACA_site4307]	10.1
TAAAATTATGTAATAACACACATATACAATACATAT [CACACA_site1236]	9.94
